Laboratory results reported in publication PMC8825601.
No constants are given. Whether binding was seen depends on the method and setting. In cells and extracts the contact can be indirect. Some binding calls cover weakened binding; strength is not graded here.

Amino acid sequences for entries named in this document (tags omitted). A change or cut given only in a name is not applied to a line headed by its entry. Chains listed by the source or under a name are the forms on record and can include a tag or linker.
UniProt Q03181: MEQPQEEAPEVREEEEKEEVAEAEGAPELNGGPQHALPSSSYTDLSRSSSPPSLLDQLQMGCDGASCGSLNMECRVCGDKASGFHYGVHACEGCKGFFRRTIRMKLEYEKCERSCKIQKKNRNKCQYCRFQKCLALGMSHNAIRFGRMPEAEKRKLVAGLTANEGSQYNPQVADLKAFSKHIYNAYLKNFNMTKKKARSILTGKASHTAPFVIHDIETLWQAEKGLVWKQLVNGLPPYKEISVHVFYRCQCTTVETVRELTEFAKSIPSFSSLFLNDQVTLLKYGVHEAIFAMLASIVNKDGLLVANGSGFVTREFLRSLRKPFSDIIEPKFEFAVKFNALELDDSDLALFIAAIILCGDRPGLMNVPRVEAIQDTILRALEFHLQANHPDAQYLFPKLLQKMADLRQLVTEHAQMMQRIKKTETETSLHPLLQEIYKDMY
UniProt Q16665: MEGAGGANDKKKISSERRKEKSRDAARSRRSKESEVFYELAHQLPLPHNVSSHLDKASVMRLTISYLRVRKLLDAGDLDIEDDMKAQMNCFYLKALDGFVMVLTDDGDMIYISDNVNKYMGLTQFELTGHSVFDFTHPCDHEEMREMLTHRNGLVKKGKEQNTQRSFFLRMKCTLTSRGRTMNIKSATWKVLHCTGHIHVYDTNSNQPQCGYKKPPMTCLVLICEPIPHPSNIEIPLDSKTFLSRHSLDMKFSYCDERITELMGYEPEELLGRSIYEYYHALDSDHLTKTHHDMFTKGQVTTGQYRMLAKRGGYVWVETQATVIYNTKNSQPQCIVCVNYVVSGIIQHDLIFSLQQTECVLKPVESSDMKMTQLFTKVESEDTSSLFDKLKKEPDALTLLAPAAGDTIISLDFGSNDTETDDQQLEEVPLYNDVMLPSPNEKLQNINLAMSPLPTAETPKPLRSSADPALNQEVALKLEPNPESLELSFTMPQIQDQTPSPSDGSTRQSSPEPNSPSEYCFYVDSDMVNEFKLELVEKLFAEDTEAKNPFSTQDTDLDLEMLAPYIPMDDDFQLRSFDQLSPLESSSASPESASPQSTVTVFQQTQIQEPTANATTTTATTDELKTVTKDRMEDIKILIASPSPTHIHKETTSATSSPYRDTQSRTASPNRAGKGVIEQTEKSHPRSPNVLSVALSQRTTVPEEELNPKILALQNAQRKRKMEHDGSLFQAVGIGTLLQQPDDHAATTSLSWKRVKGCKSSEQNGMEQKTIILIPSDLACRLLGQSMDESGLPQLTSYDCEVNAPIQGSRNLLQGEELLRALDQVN
HA-ΔODD-HIF1α (Q16665, form named): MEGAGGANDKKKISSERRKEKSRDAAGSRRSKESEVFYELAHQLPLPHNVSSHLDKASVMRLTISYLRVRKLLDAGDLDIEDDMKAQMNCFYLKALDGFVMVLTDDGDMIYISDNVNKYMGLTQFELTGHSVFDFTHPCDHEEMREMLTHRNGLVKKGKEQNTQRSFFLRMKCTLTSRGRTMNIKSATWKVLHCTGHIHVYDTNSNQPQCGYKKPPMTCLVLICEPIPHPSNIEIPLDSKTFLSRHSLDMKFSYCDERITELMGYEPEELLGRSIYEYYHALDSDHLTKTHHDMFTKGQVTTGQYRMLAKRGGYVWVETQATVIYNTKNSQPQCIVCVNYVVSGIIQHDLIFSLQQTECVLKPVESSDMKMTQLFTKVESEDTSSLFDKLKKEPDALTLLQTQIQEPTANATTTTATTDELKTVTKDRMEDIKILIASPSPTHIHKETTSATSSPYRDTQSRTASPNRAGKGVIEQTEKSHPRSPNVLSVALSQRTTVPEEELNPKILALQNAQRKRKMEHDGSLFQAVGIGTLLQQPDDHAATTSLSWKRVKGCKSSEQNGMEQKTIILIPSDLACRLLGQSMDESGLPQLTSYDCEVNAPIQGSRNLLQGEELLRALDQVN
UniProt P27540: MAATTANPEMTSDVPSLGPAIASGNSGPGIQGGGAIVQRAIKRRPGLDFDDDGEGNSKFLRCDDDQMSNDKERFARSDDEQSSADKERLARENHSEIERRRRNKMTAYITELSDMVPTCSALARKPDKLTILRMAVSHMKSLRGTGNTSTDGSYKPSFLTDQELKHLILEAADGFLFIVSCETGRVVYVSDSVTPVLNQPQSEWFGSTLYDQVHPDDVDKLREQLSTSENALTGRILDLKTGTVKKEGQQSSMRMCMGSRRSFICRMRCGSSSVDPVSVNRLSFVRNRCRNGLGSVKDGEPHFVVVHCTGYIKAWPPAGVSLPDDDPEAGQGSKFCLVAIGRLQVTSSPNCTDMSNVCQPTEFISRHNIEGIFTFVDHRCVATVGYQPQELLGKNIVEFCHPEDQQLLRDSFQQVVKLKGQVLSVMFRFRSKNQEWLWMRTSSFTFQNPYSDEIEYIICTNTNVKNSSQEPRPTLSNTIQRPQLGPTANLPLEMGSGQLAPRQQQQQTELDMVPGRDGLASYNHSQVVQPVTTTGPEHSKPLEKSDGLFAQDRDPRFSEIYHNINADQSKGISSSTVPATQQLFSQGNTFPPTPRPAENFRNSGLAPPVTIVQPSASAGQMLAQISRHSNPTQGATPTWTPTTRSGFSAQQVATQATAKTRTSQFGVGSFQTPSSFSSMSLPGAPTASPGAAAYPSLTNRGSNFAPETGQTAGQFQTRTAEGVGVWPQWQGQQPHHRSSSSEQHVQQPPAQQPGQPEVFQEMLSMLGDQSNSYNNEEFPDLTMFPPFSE

Columns and labels:
[1] = molecular target: HA-PPARδ (human) (UniProt Q03181); experiment: co-IP; Figure S5A; which beads and which tagged constructs were used was not shown
[2] = molecular target: HA-HIF1α (UniProt Q16665); experiment: co-IP; anti-HA agarose beads, 4 h at 4 °C, lysates of co-transfected HEK293T in IP lysis buffer (20 mmol/L Tris-HCl pH 7.9, 200 mmol/L NaCl, 5 mmol/L MgCl2, 10% glycerol, 0.2 mmol/L EDTA, 0.1% NP-40); Western blot; in Figure 6C with or without co-expressed PPARδ; in Figure 6E cells treated with GW501516 (6 h) or solvent
[3] = molecular target: HA-ΔODD-HIF1α (UniProt Q16665); experiment: as above
[4] = molecular target: Flag-PPARδ (human) (UniProt Q03181); experiment: co-IP; anti-Flag agarose beads, 4 h at 4 °C, lysates of co-transfected HEK293T in IP lysis buffer (20 mmol/L Tris-HCl pH 7.9, 200 mmol/L NaCl, 5 mmol/L MgCl2, 10% glycerol, 0.2 mmol/L EDTA, 0.1% NP-40); Western blot; in Figure 6E cells treated with GW501516 (6 h) or solvent
[5] = molecular target: Flag-HIF1α (UniProt Q16665); experiment: as above

Substance: Flag-HIF1B (from UniProt P27540 1-789)
- binding [1]: binds weakly

Substance: Flag-PPARδ (from UniProt Q03181 1-441)
- binding [2]: binds
- binding [3]: no binding

Substance: HA-HIF1α (from UniProt Q16665 1-826)
- binding [4]: binds

Substance: HA-PPARδ (from UniProt Q03181 1-441)
- binding [5]: binds
